Reference: PubChem BioAssay AID504466 (National Center for Advancing Translational Sciences (NCATS), 2011)
In all, about 330,000 compounds went through this assay and about 4,200 (1.3%) were called active. Inconclusive results, whose numbers are uncertain, are shown with a selection of clear calls. Calls come from the whole dose curve; as a rule, active = well fitted activation curve with a large enough effect; inconclusive = small, poorly fitted or top-dose-only effect; inactive = no such curve, though single readings can be large or run the other way. Potencies beside an inconclusive call are fits to weak or partial responses and may not hold up.

Test: qHTS screen for small molecules that induce genotoxicity in human embryonic kidney (HEK293T) cells expressing luciferase-tagged ELG1; note: nearly all actives have a fitted effect of over 60% in size
Settings: HEK293T ELG1-luciferase reporter, luminescence, 16 h; series mostly up to 46 µM
How it was run: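 Reporter readout depends on ELG1 protein level, which increases with genetic stress. After 16 hr compound exposure at 37 °C, luciferase activity was quantified using ONE-Glo.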
Potency is the fitted concentration of half-maximal effect; tags give direction and shape of the fitted curve.

Row | Compound | Potency
1 | Cc1cc(Oc2cc(N)cc([N+](=O)[O-])c2)ccc1Cl | inactive
2 | CCCOc1ccc(-c2c(=O)n(OCC(=O)OCC)c3ccccc3[n+]2[O-])cc1 | inconclusive: 20.6 µM [activator, partial curve, poor fit]
3 | COc1ccc(C(CC(=O)N2CCOCC2)c2c(OC)cc(OC)c3ccc(=O)oc23)cc1 (stereo unspecified) | inconclusive: 23.1 µM [activator, partial curve, poor fit]
4 | COc1cc(S(=O)(=O)NCc2ccc(F)cc2)ccc1-n1cnnn1 | inactive
5 | CCOc1ccc(-c2ccc(/C=C3/C(=N)N4C=CSC4=NC3=O)o2)c([N+](=O)[O-])c1 | inconclusive: 32.6 µM [activator, partial curve, poor fit]
6 | O=C(CSc1nccn1Cc1ccccc1)Nc1nccs1 | inconclusive: 18.4 µM [activator, single point]
7 | CN=C1S/C(=C\c2cn(CC(=O)OC)c3ccccc23)C(=O)N1C | inactive
8 | C=CCNc1oc(-c2cccs2)nc1C#N | inconclusive: 20.6 µM [activator, partial curve, poor fit]
9 | CSc1nnc(Nc2ccccc2C)s1 | inconclusive: 29.1 µM [activator, partial curve, poor fit]
10 | c1ccc(Nc2nnc(-c3cccc4ccccc34)o2)cc1 | inconclusive: 4.61 µM [activator, partial curve, poor fit]
11 | CC(SCc1ccccc1)C(=O)Nc1ccccc1-c1ccccc1 (stereo unspecified) | inactive
12 | O=C(COC(=O)c1ccc(O)cc1)c1ccc2c(c1)OCCO2 | active: 5.17 µM
13 | O=C(N/N=C/c1cccc2ccccc12)c1cccs1 | inconclusive: 14.6 µM [activator, partial curve]
14 | O=S(=O)(c1ccc(NC(=S)NCc2ccc(F)cc2)cc1)N1CCOCC1 | inactive
15 | CCCCSc1nnc(-c2ccc(C)cc2)o1 | active: 2.06 µM
16 | CCOc1ccc(Nc2ncnc3c2cnn3C)cc1 | inconclusive: 20.6 µM [activator, partial curve, poor fit]
17 | CN1CCN(C(=O)/C=C/c2ccc3c(c2)OCO3)CC1 | inactive
18 | CCc1nc(C)cn1S(=O)(=O)c1cc([N+](=O)[O-])ccc1Cl | inconclusive: 5.17 µM [activator, full curve]
19 | Cc1ccn2c(=O)nc(SCC(=O)c3ccc(Cl)cc3)nc2c1 | inconclusive: 11.6 µM [activator, partial curve, poor fit]
20 | Cc1ccc(C(=O)c2c3ccc([N+](=O)[O-])cc3[n+]([O-])n2CCCN)cc1 | inconclusive: 29.1 µM [activator, partial curve, poor fit]
21 | O=C(Nc1ccccc1)c1cc2ccccc2[nH]1 | inconclusive: 3.66 µM [activator, full curve, poor fit]
22 | CN1CCN(C(=O)c2cccc(NS(=O)(=O)c3ccc(Br)cc3)c2)CC1 | inactive
23 | Cn1nccc1C(=O)N/N=C/c1ccccc1[N+](=O)[O-] | inconclusive: 20.6 µM [activator, partial curve]
24 | CCC1C/C(=C\c2cc(OC)c(OC)cc2OC)C(=O)/C(=C/c2cc(OC)c(OC)cc2OC)C1 (stereo unspecified) | inactive

Row | Compound | Potency
25 | Cc1c(-c2cc[n+]([O-])cc2)oc2ccc(Br)cc2c1=O | inconclusive: 16.4 µM [activator, partial curve, poor fit]
26 | O=C(Cc1ccc(Cl)cc1)c1ccc(O)cc1 | inconclusive: 14.6 µM [activator, partial curve]
27 | COc1ccc(C)cc1NC(=O)NNC(=O)C(C)Oc1ccc(F)cc1Cl (stereo unspecified) | inconclusive: 29.1 µM [activator, single point]
28 | CCCC(=O)Nc1cnc(NC(=O)c2cccc(F)c2)cc1C | active: 0.461 µM
29 | CC(=O)c1cnc2c(-c3ccc(Cl)cc3)cnn2c1C | inconclusive: 18.4 µM [activator, partial curve, poor fit]
30 | Cc1nc(-c2ccc(Cl)cc2)sc1C(=O)O | inconclusive: 16.4 µM [activator, partial curve, poor fit]
31 | Cn1c(=O)n(CCCOc2ccc(Cl)cc2)c2ccccc21 | inconclusive: 20.6 µM [activator, single point]
32 | COc1ccc(-c2nc3ccccn3c2C=O)cc1 | inconclusive: 6.51 µM [activator, full curve, poor fit]
33 | O=C(/C=C/Nc1ccc(F)c(Cl)c1)c1ccccc1 | active: 18.3 µM
34 | Cc1ccc(N=c2c([N+](=O)[O-])nn(-c3ccc4c(c3)OCCO4)n2O)c(Cl)c1 | inconclusive: 35.5 µM [activator, single point]
35 | Cc1ccc(Cl)c2c(N=Nc3ccccc3)c(O)[nH]c12 | inconclusive: 5.17 µM [activator, partial curve]
36 | CCNC(=O)CSc1nc(-c2ccccc2)cs1 | inconclusive: 16.4 µM [activator, partial curve, poor fit]
37 | CCOc1cc(C2C(C#N)=C(N)OC(C)=C2C(C)=O)c(Br)c(Br)c1OC(C)C (stereo unspecified) | inconclusive: 7.31 µM [activator, partial curve, poor fit]
38 | Cc1cc(C)c(OCC(=O)NCC2COc3ccccc3O2)c(C)c1 (stereo unspecified) | inactive
39 | CC(=O)c1ccc(Nc2ccc(-c3ccccc3C)nn2)cc1 | inconclusive: 10.3 µM [activator, partial curve]
40 | CCCOc1ccc(C(=O)NNC(=S)NC(=O)CC)cc1 | inconclusive: 32.6 µM [activator, partial curve, poor fit]
41 | NNc1nc2c(-c3ccc(F)cc3)nnn2c2ccccc12 | inconclusive: 2.31 µM [activator, partial curve]
42 | CCN1C(=O)CC(c2ccco2)Sc2ccccc21 (stereo unspecified) | inconclusive: 18.4 µM [activator, single point]
43 | COc1ccc2c(C)c(CCC(=O)NC3CC3)c(=O)oc2c1C | inconclusive: 11.6 µM [activator, partial curve, poor fit]
44 | CCCCc1ccc(-c2ccc(C)cc2O)nc1 | active: 1.46 µM
45 | COc1ccc(-c2coc3cc(O)ccc3c2=O)cc1OC | inconclusive: 20.6 µM [activator, single point]
46 | c1ccc(CCNc2ccnc3cc4ccccc4cc23)cc1 | inactive
47 | COc1cccc(NC(=O)CSc2ccccn2)c1 | inconclusive: 16.4 µM [activator, partial curve, poor fit]
48 | CC(=O)Nc1ccc(NC(=O)c2ccco2)cc1 | inconclusive: 18.4 µM [activator, single point]

Row | Compound | Potency
49 | O=C(CSc1nnc(-c2ccccc2Cl)o1)N1CCCC1 | inconclusive: 23.1 µM [activator, single point]
50 | CCO[C@H]1OC(C(=O)NCc2nc3ccccc3[nH]2)=C[C@@H](C2CC2)[C@@H]1CCCO | inconclusive: 14.6 µM [activator, partial curve, poor fit]
51 | CCCNC(=O)c1onc(CSc2nc3ccccc3[nH]2)c1C(=O)NCCC | inactive
52 | O=C(NNC(=O)c1ccccc1O)c1ccc(Cl)cc1 | inconclusive: 18.4 µM [activator, partial curve, poor fit]
53 | Cc1c(C(=O)NCCN2CCOCC2)oc2ccc(Br)cc12 | inconclusive: 7.3 µM [activator, single point]
54 | O=[N+]([O-])c1cccc(Oc2cnccn2)c1 | inactive
55 | Cc1cc(=O)[nH]c2n[nH]c(-c3ccccc3)c12 | inconclusive: 20.6 µM [activator, single point]
56 | NC(=O)c1ccsc1NC(=O)COc1ccccc1 | active: 8.91 µM
57 | CCN(CC)c1ccc(N2C(=O)c3ccccc3C2=O)cc1 | inconclusive: 3.98 µM [activator, full curve, poor fit]
58 | CCCN1CCC(=NNC(=O)c2ccc(Br)o2)CC1 | inactive
59 | COC(=O)C1CCN(C(=O)c2cc3ccccc3oc2=O)CC1 | inconclusive: 18.4 µM [activator, single point]
60 | N#CC1=C2C=CC=CN2CC1=O | inconclusive: 20.6 µM [activator, partial curve, poor fit]
61 | Clc1ccc(-c2ccc(/C=N/Nc3cc(N4CCOCC4)nc(N4CCOCC4)n3)o2)cc1 | inactive
62 | CCOc1ccccc1C(=O)Nc1nnc(SCC(=O)N2CCOCC2)s1 | inactive
63 | Cc1ccsc1C1Nc2ccccc2-c2nc3ccccc3n21 (stereo unspecified) | inconclusive: 32.6 µM [activator, partial curve, poor fit]
64 | CC1(C)Oc2ccc(NC(=O)C3COc4ccccc4O3)cc2O1 (stereo unspecified) | inconclusive: 0.891 µM [activator, partial curve, poor fit]
65 | COc1cc([C@H]2c3[nH]c4ccccc4c3C[C@H]3C(=O)N4[C@@H](c5cc(OC)c(OC)c(OC)c5)c5[nH]c6ccccc6c5C[C@H]4C(=O)N23)cc(OC)c1OC | inconclusive: 29.1 µM [activator, partial curve, poor fit]
66 | CSc1ccc(CN(C)C(=O)C2CCN(C(=O)Nc3ccccc3)CC2)cc1 | inactive
67 | CCCOc1c(Br)cc(C(=O)OCC(=O)NC2CC2)cc1OC | inconclusive: 18.3 µM [activator, single point]
68 | Cc1cc(=O)oc2c(C)c(OCC(=O)c3ccccc3)ccc12 | inactive
69 | Clc1cccc(Cl)c1COn1nnc2ccccc21 | inconclusive: 15.8 µM [activator, single point]
70 | CCOc1ccc(Nc2ncnc(N)n2)cc1 | inconclusive: 18.4 µM [activator, partial curve, poor fit]
71 | CC1CCC(NC(=O)Cn2ncc3ccccc32)CC1 (stereo unspecified) | active: 10.3 µM
